# Among all 1,900 compounds or so, about 40 (2%) showed an effect of 50% or more. The list shows a part of the results.
# Target: human SGLT1 (hSGLT1) (human, UniProt P13866)
# Assay: primary screen, percent of control activity; higher = less effect of the substance
# Parameters: single well
# Settings: 50 µM
# Method in brief: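 Single-point screen at 50 µmol/L in CHO-hSGLT1 cells, with 160 µmol/L 1-NBD-glucose in glucose-free DMEM for 90 min at 37°C. Fluorescence from isopropanol extracts was calibrated, and CHO wild-type uptake was subtracted. Data are percent of uptake without compound.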
# Chain of human SGLT1 (hSGLT1) (P13866 whole entry, looked up): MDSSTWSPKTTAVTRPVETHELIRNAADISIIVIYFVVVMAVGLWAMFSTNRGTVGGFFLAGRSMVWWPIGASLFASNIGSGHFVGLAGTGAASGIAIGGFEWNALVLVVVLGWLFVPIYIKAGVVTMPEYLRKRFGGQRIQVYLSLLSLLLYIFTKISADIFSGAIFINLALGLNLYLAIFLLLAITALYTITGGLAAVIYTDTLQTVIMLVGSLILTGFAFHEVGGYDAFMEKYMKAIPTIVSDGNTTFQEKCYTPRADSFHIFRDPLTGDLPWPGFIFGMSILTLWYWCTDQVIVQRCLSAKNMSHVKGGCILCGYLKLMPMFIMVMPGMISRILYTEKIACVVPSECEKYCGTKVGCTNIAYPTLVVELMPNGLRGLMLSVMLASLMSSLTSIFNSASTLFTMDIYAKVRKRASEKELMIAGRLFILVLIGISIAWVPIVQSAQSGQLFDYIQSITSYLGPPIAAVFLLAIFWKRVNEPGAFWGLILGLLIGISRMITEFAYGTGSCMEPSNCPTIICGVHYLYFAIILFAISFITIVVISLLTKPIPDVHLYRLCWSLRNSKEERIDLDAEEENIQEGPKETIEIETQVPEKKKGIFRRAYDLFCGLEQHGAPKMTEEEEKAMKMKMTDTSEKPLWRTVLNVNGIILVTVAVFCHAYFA
row,SMILES,NORMALIZED SGLT1 ACTIVITY (%)
1,COc1ccc2cc3[n+](cc2c1OC)CCc1cc2c(cc1-3)OCO2.[Cl-],112%
2,COc1c2ccoc2nc2c(OC)c(OCC(O)C(C)(C)O)ccc12 (stereo not shown),168%
3,CC[C@]12CCCN3CCc4c(n(c5ccccc45)[C@@](O)(C(=O)OC)C1)[C@@H]32,79%
4,COC1=C(OC)C(=O)C(C/C=C(\C)CC/C=C(\C)CC/C=C(\C)CC/C=C(/C)CC/C=C(\C)CC/C=C(\C)CC/C=C(\C)CC/C=C(\C)CC/C=C(\C)CCC=C(C)C)=C(C)C1=O,140%
5,Cc1c(NC(C)C)c(=O)n(-c2ccccc2)n1C.Cl,124%
6,NS(=O)(=O)c1cc2c(cc1Cl)NC(C(Cl)Cl)NS2(=O)=O (stereo not shown),112%
7,CCCCCCCCCN1C[C@H](O)[C@@H](O)[C@H](O)[C@H]1CO,83.2%
8,C=C(C)C1Cc2c(ccc(C(=O)O)c2O)O1 (stereo not shown),92%
9,Nc1ncnc2c1ncn2[C@H]1C[C@H](O)[C@@H](CO)O1,99%
10,CC(=O)CCCCn1c(=O)c2c(ncn2C)n(C)c1=O,146%
11,CCc1cc(C(N)=S)ccn1,106%
12,CCCCC[C@H]1C(=O)O[C@H](C)[C@H](NC(=O)c2cccc(NC=O)c2O)C(=O)O[C@@H](C)[C@@H]1OC(=O)CC(C)C,220%
13,CC1=C(/C=C/C(C)=C/C=C/C(C)=C/C=C/C=C(C)/C=C/C=C(C)/C=C/C(=O)[C@]2(C)C[C@@H](O)CC2(C)C)C(C)(C)C[C@H](O)C1,103%
14,CC1=C(/C=C/C(C)=C/C=C/C(C)=C/CO)C(C)(C)CCC1,140%
15,CC(C)[C@H](N)C(=O)OCCOCn1cnc2c(=O)[nH]c(N)nc21.Cl,160%
16,Cl.OC1CCCCC1N1CCC(c2ccccc2)CC1 (stereo not shown),67%
17,CC1=C(C(=O)O)N2C(=O)[C@@H](NC(=O)[C@H](N)c3ccc(O)cc3)[C@H]2SC1,89%
18,OC[C@H]1O[C@@H](O[C@H]2[C@H](O)[C@@H](O)[C@@H](O)O[C@@H]2CO)[C@H](O)[C@@H](O)[C@@H]1O,71%
19,c1ccc(N=Nc2ccccc2)cc1,97%
20,Cl.Cl.NCCc1c[nH]cn1,140%

row,SMILES,NORMALIZED SGLT1 ACTIVITY (%)
1,C=CCc1cc(OC)c2c(c1OC)OCO2,104%
2,CCCCCN(CCCCC)C(=O)C(CCC(=O)[O-])NC(=O)c1ccc(Cl)c(Cl)c1.[Na+] (stereo not shown),314%
3,C[C@@H]1CC2C3C[C@H](F)C4=CC(=O)C=C[C@]4(C)[C@@]3(F)[C@@H](O)C[C@]2(C)[C@@]1(O)C(=O)COC(=O)C(C)(C)C (stereo partly shown),120%
4,CC1(C)C(=O)CC[C@@]2(C)C1C[C@@H](O)[C@@]1(C)C3=CC(=O)O[C@@H](c4ccoc4)[C@]3(C)CCC21 (stereo partly shown),210%
5,CCCCNc1ccc(C(=O)OCCN(C)C)cc1.Cl,135%
6,Nc1nccs1,105%
7,CC(C)[C@@H]1CC[C@@H](C)C[C@H]1OC(=O)c1ccccc1,122%
8,CCCN(CCC)CCc1cccc2c1CC(=O)N2.Cl,148%
9,CC(=O)Nc1ccc(OCC(O)CNC(C)C)cc1 (stereo not shown),105%
10,CN1CCN(C2=Nc3cc(Cl)ccc3Nc3ccccc32)CC1,152%
11,N[C@H](CO)Cc1ccccc1,96%
12,NC(=O)NO,97%
13,Cc1cc(O)c2c(c1)C(=O)c1cc(O)cc(O)c1C2=O,118%
14,C=C1CCC(=O)C(C)CCC2C1CC2(C)C (stereo not shown),75%
15,CCCn1cnc2c1c(=O)n(CCCCC(C)=O)c(=O)n2C,121%
16,CC1=C(/C=C/C(C)=C/C=C/C(C)=C/C=C/C=C(C)/C=C/C=C(C)/C=C/C2=C(C)C(=O)C(O)CC2(C)C)C(C)(C)CC(O)C1=O (stereo not shown),101%
17,CCOC(=O)c1c(C)cc(O)c(C)c1O,122%
18,CC(=O)OCC(=O)[C@@]1(O)CCC2C3CCC4=CC(=O)CC[C@]4(C)C3[C@@H](O)C[C@@]21C (stereo partly shown),105%
19,C[N+](C)(C)CCOP(=O)([O-])OP(=O)(O)OC[C@H]1O[C@@H](n2ccc(N)nc2=O)[C@H](O)[C@@H]1O,90%
20,CN[C@@H]1[C@@H](O)C(OC2[C@@H](N)C[C@@H](N)[C@H](O[C@H]3O[C@H](C(C)O)[C@@H](O)[C@H](O)[C@H]3N)[C@H]2O)OC[C@]1(C)O.O=S(=O)(O)O.O=S(=O)(O)O (stereo partly shown),82%

row,SMILES,NORMALIZED SGLT1 ACTIVITY (%)
1,Cc1ccc(-c2nc3ccc(C)cn3c2CC(=O)N(C)C)cc1,112%
2,CC1(C)O[C@@H]2[C@@H](CO[C@@]3(COS(N)(=O)=O)OC(C)(C)O[C@@H]23)O1,106%
3,CC(C)[N+](C)(CCOC(=O)C1c2ccccc2Oc2ccccc21)C(C)C.[Br-],111%
4,CC(=O)O[C@H]1CC[C@@]2(C)C(CC[C@]3(C)C2C(=O)C=C2C4[C@@H](C)[C@H](C)CC[C@]4(C(=O)O)CC[C@]23C)C1(C)C (stereo partly shown),37%
5,COc1ccccc1OCC(O)COC(N)=O (stereo not shown),106%
6,COc1ccnc(CS(=O)c2nc3cc(OC(F)F)ccc3[nH]2)c1OC (stereo not shown),196%
7,CC(=O)O[C@H]1C[C@@H](OC(C)=O)C(C)(C)C2C[C@@H](OC(C)=O)[C@]3(C)C(CC[C@@]4(C)[C@H](c5ccoc5)C(=O)[C@H]5O[C@]543)[C@]21C (stereo partly shown),129%
8,COc1ccc2c(c1)c(CC(=O)O)c(C)n2C(=O)c1ccc(Cl)cc1,259%
9,COc1cc2c(cc1O)CCNC2C (stereo not shown),142%
10,CCCCOc1ccc(CC(=O)NO)cc1,162%
11,Clc1ccccc1C(c1ccccc1)(c1ccccc1)n1ccnc1,92%
12,CCCCCCC(C)OC(=O)COc1ccc(Cl)cc1Cl (stereo not shown),112%
13,O=[N+]([O-])c1cc([As](=O)(O)O)ccc1O,103%
14,CC(C(=O)O)[C@H]1CCC2C3CC=C4C[C@@H](O)CC[C@]4(C)C3CC[C@@]21C (stereo partly shown),140%
15,CN1C(C)(C)CCCC1(C)C.O=C(O)C(O)C(O)C(=O)O,97%
16,CCN(CC)CCNC(=O)c1ccc(NC(C)=O)cc1.Cl,115%
17,Cc1c(N(C)C)c(=O)n(-c2ccccc2)n1C,96%
18,CC(=O)O[C@H]1C[C@@H](OC(C)=O)C(C)(C)C2C[C@@H](O)[C@]3(C)C(CC[C@@]4(C)[C@H](c5ccoc5)OC(=O)[C@H]5O[C@]543)[C@]21C (stereo partly shown),119%

# Reference: article PMC6664820, “Novel natural and synthetic inhibitors of solute carriers SGLT1 and SGLT2” (Pharmacology Research & Perspectives, 2019)
